# The RNAGym collection of RNA variant scans (doi:10.7554/elife.90254)
# The source gives no read counts; variants with many changes may rest on few reads.
# B1: LINE1-mini (parent)
# chain: GGCAGAGCUCAACACAGCGUGGCAAAGUGGCUGUGGCUAGACUGCC
# Variants of: B1
# Assay: self-cleavage, relative activity (ratio to wild type); higher = more cleavage; in vitro, sequencing; the parent is a self-cleaving ribozyme
row,Variant,self-cleavage
1,A11U C13A C42A,0
2,G1U A26G C37A A39G C46U,0.02
3,C18U G21U G22A C23G,0.24
4,C3G C18G A39U,0.06
5,G2U C3A C45A,0.34
6,A4C A26G U32C G40U,0.16
7,U9G C31G C45A,0.04
8,A4G G22U C31A C42U,0.36
9,A25G U32A U38A,0.06
10,C10A A16G A26U,0.04
11,C8U C10G G17U C23U,0.03
12,G19C U20G G29C G30C G35U,0.03
13,A4U G5U G7A U9G A26C U28A,0.04
14,C3G G7U A12C G22C G27C G30C,0.02
15,C18U G27U G33C U34C G40A,0.04
16,G2U C8G A12U G40A,0.03
17,C3U A6U A26G C42U,0.09
18,G2U A4G C37A C46A,1.04
19,G21C U28A C42U,0.09
20,G5U A6G A14C C37A,0.05
21,G5A A6G C15A,0.09
22,G19A A41G C45U,0.36
23,C15U C31G C45G,0.02
24,U20C G33A G40A,0.02

row,Variant,self-cleavage
1,A4G A12C A14U C18A A39G,0.01
2,G1A C8A A11C G36U U43C,0.01
3,G1C U20C U34C,0.01
4,G19U U20C U38G,0.01
5,G27U G33C A41C,0.02
6,A11C G17C C18A G27U G36C C42G,0
7,G2U C3U A12C A14G G29A,0.01
8,C18A G30A A39G,0.02
9,G1U G29U U34G,0.05
10,C10A G29C G44A,0.02
11,G2U A14C A39U G40U A41G,0
12,U32C G33C U43A,0.01
13,G1A G5A U20C G30A G35C,0.05
14,G1C C13G A16G G22U,0.01
15,G2U C23U G30U A39G,0.08
16,A11C A16U G44C C45U,0.01
17,G1U G2C C8G C37A,0.01
18,G1C A6G A39C,0.04
19,G5A C10G G19C G21U G27A U32A,0.02
20,G2C C10G A24C G27C A39U,0
21,G1A A4C C8U C10U A39C C46U,0.12
22,C8A G19U C23A C46A,0.08
23,G22U U28C C45G,1.69
24,C23U G33C G40C U43A,0.01

row,Variant,self-cleavage
1,A12U G22A G29U C42U,0.1
2,C8G U9C C23A G44C,0.02
3,G1U C18U G27U,0.29
4,G1U C15A G17C G21A G36C,0.02
5,G7C G22U C45G,0.14
6,A4G C13U G19U,0.35
7,A4U G7U C10U A39U,0.13
8,G1U C8U C18U G22C A24U,0.16
9,U9A C13U G22C,0.04
10,A11G G35U U43C,0.03
11,G21U A24G G36A G44A,0.1
12,C13U C18U G33A C45U,0.04
13,U9G G19A A26U G30A,0.16
14,A11G G22A G35A C45U,0.02
15,C13G C18U G36U C37A,0.1
16,G5U A6C A26C G30C A39C,0.03
17,G1A A4C C13U,0.1
18,G40U A41C C45G,0.17
19,G29C G33U G35U,0.17
20,G7C G30A C31A,0.44
21,C15A G30C C31A C37A,0.12
22,U20C G29A U32C,0.13
23,C10A G19A G36U A41U,0.01
24,C3G U9G A14C A26C G27A,0.09

row,Variant,self-cleavage
1,G1A A12G G29A,0.03
2,G2C A6U G7A A16C G21C C42U C45U,0.54
3,G21C G36C A41U,0.08
4,G22A C23A U43A,0.05
5,U9C U28A C31U G36C,0.02
6,G1U G5A G21U,0.02
7,A11U A14G G17U G29U,0.01
8,G7A G21U U34C,0.07
9,U9G A14U C15A U20G C37G,0.11
10,C15U G27C U43G,0.07
11,C13A C31U U43C,0.09
12,G2U C8A C37U A39U G44A,0.05
13,A6G C13U C15A A24U,0.02
14,A12C A14U C15G G21U,0.04
15,G2C U9G C13G U20C G33U,0.04
16,G1C U9G G19U G40A,0
17,U9A G29A C42G C46G,0.01
18,C18G G19A U43G,0.03
19,A14U C15U G29A C31G,0.02
20,G1A U9G A11C G22U,0.02
21,C3A A26U U38A,0.43
22,A12C A25G G35U,0
23,C3A A6G C23G C37U,0.04
24,G29C G35C A39G,0.06

row,Variant,self-cleavage
1,A14C C37U G44A,0.05
2,G7U G17A C23A A26U,0.01
3,C3U A14C A26C G29A G44U,0.06
4,A16U G30A G36A C37G,0.03
5,C10G A14U G30U G35U G40U A41U,0
6,G2U C3A G22A C23A,1.5
7,A6G U32G U34C,0.02
8,G19A U34A U38A,0.23
9,U34G G40U C42G U43A,0.15
10,C10A G29C U43C,0.01
11,A25C G29U C45U,0.14
12,G1U A12U A16U A26C U34A G40U U43A,0.01
13,G22A A26U C31G A41U,0.07
14,G30U C31U A39C,0.02
15,C18U U20A G22A U43A,0.06
16,G2U A24G G35U,0.11
17,G5U A26C C37A A41U,0.05
18,C15U G21A G36C,0.03
19,C3U U9A U38G A41C,0.01
20,C3A G29C C31A,0.26
21,A6C C18U C23U G35U G44A,0.02
22,C3G C31G C45U,0.11
23,C3A A11C C23G,0.02
24,A6C G19U U34A A39G,0.04

row,Variant,self-cleavage
1,A6U C8A G22U U32C,0.05
2,G19C U20G A25C G35C,0.03
3,G2U C3A A6U U20G G29C C37A,0.03
4,C13G G22U G29A C42U,0.07
5,G2U A6U A11G,0.01
6,G2A A16U U38C,0.52
7,C8U G29U C31G C42U,0.06
8,U9A U20G G36A,0.26
9,C15A G19C C42G,0.07
10,C3U A6C G27C G33A,0.05
11,C3A C8A A41G,0.33
12,C23G G29C G33A G36U,0.06
13,G2A C3U G7A C10U C13G,0.44
14,C8A A12U C23U,0.31
15,C13G G29U A41G C42A G44U,0.01
16,C3A C8A U9A C10A G35A A39U C45A,0.01
17,G5U C15A G36U G44U,0.05
18,C3A A6U C23A G40A C42U,0.19
19,C13U U20G G21U,0.14
20,C3U A26C U38C,0.41
21,C3A A14U U28G U32A G33U G40U,0.19
22,G2U C8G A11U A26C,0.06
23,A16C U20G C31U,0.02
24,C15A A24C C31A U34C,0.03

row,Variant,self-cleavage
1,G5C C8G G44A C45G,0.02
2,A12G G27C U32C,0.13
3,G2U U20C U34G C45U,0
4,G1U C3G G19A A26U G35A U38C,0.06
5,A4U G17A G27C U28A C46A,0.03
6,A4U C45U C46U,0.35
7,G1A G7C G19C C42G,0.09
8,G2C U28C C31U G44U,0.03
9,G2A U9C C10U G19A,0.03
10,G5A G7U A11G A16C U43G,0
11,C18A G40U C45G,0.03
12,C10G C15A G17U,0.01
13,A4U A12C G29A,0.05
14,G27U U32C G36A,0.09
15,G19A G27U A39C C46A,0.08
16,C8A G30U C31U A41U C45A,0.72
17,C18A U28A A39G,0.02
18,C10A A12C A14C A26G G35U,0.01
19,C15U A25G U32C,0.05
20,A6C U20A G22A,0.12
21,G1U G5U U38C,0.02
22,G2C A24U A26C,0.12
23,C8A C15A U34A C37G,0.36
